Reference: paper PMC4484057
Results are given in words; binding and its absence hold for the method and conditions named. Binding seen in cells or lysates may run through a third protein. Some entries that bind do so weakly or less than the wild type.

Protein sequences, listed by entry. Tags and fused reporters are not part of them. Lines headed by an entry give the natural chain unless they say otherwise; changes in a name come on top. Chains listed by the source or under a name are the forms on record and can include a tag or linker.
UniProt P08753: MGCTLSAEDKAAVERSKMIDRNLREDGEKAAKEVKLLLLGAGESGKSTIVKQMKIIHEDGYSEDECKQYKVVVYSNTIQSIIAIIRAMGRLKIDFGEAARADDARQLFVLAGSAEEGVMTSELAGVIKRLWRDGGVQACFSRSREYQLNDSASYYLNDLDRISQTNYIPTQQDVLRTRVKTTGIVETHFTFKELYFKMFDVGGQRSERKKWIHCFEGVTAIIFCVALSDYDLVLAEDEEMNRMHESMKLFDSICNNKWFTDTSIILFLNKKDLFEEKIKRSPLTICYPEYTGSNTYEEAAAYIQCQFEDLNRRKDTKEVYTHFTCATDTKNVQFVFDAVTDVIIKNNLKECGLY
myc-Daple full-length F1675A (FA) (Q9P219-1, form named): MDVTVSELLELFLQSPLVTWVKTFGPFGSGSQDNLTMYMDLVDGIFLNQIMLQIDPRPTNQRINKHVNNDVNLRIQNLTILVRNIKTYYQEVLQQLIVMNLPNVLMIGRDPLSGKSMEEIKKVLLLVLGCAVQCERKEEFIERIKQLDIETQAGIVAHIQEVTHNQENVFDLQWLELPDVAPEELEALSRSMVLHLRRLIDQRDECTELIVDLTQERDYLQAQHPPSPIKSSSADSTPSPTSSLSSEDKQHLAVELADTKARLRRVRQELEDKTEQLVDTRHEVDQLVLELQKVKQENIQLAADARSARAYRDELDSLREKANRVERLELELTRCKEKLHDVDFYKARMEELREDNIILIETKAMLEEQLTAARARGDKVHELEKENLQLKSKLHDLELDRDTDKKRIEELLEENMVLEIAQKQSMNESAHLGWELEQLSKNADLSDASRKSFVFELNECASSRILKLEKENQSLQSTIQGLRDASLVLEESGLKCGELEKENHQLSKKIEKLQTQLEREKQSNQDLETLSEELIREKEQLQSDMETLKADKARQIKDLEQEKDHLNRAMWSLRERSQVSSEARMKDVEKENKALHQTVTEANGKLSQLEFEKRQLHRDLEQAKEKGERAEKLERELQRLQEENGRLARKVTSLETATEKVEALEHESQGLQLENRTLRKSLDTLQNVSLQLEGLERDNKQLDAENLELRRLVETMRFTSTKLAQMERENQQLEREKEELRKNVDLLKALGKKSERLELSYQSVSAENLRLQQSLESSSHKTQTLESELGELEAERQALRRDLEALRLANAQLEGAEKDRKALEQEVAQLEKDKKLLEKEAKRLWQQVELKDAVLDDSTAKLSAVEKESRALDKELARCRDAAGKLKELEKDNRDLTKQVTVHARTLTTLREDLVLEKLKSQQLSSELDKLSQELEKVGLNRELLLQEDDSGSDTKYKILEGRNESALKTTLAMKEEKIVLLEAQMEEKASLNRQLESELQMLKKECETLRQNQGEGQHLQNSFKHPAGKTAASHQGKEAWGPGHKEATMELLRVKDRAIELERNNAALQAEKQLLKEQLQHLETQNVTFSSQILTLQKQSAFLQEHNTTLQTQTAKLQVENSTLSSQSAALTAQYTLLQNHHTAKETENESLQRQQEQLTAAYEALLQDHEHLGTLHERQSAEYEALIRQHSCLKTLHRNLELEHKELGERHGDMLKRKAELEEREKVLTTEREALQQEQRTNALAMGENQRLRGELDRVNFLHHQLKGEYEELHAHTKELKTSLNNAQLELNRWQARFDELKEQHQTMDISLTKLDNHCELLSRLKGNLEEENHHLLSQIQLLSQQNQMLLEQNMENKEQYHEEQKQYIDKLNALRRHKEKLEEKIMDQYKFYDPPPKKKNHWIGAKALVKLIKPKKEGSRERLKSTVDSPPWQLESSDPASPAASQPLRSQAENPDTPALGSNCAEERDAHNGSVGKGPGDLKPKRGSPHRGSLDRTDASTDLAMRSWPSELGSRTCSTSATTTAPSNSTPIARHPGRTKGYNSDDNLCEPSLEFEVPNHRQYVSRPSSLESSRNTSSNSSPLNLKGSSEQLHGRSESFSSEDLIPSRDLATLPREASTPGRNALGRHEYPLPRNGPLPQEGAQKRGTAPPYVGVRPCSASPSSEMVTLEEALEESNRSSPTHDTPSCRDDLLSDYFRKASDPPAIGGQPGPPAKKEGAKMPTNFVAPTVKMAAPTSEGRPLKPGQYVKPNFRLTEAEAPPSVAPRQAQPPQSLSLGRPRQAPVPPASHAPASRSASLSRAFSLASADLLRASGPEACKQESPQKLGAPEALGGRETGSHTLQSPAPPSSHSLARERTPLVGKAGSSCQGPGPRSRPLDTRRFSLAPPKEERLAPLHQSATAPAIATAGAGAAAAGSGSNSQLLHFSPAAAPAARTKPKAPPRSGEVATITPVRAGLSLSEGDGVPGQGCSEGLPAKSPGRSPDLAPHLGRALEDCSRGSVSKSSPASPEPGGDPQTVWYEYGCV

Assays:
Gαi3-FLAG (rat) [1] = biological target: Gαi3-FLAG (rat) (UniProt P08753); test: co-IP; lysates of HEK293 cells expressing Gαi3-FLAG; anti-FLAG mAb or control IgG and protein G beads; immunoblot for endogenous Daple
GST-Gαi3 (rat) [2] = biological target: GST-Gαi3 (rat) (UniProt P08753); test: pull-down; GST-Gαi3 preloaded with GDP (inactive) on glutathione beads; lysates (~250 µg) of Cos7 cells expressing myc-Daple constructs; 4 hr at 4°C; immunoblot for myc and Gβ; only the target purified
GST-FZD1-CT (human) = GST-FZD1-CT (human) (UniProt Q9UP38); test: pull-down; GST-tagged FZDR cytoplasmic tails immobilised on glutathione beads; lysates of Cos7 cells expressing myc-Daple constructs and/or Dvl1; immunoblot; only the target purified
GST-FZD2-CT (mouse) = GST-FZD2-CT (mouse) (UniProt Q9JIP6); test: as above
Gαi3-FLAG (rat) [3] = biological target: Gαi3-FLAG (rat) (UniProt P08753); test: co-IP; lysates of Cos7 cells expressing Gαi3-FLAG and myc-Daple WT or FA; anti-FLAG mAb and protein G beads; immunoblot for myc
GST-Gαi3 (rat) [4] = biological target: GST-Gαi3 (rat) (UniProt P08753); test: condition: only GST-Gαi3 loaded with GDP + AlF4- (active); pull-down; as a5, but GST-Gαi3 preloaded with GDP + AlF4- (active); only the target purified

“Daple (full-length endogenous) (from UniProt Q9P219-1 1-2028)” was tested, and the binding (Gαi3-FLAG (rat) [1]) was “binds”.

“myc-Daple WT (full-length) (from UniProt Q9P219-1 1-2028)” was tested, and the binding (GST-Gαi3 (rat) [2]) was “binds”, the binding (GST-FZD1-CT (human)) was “binds weakly” and the binding (GST-FZD2-CT (mouse)) was “binds weakly”. For the same substance, the binding (Gαi3-FLAG (rat) [3]) was “binds” and the binding (GST-Gαi3 (rat) [4]) was “no binding”.

With “myc-Daple full-length F1675A (FA) (from UniProt Q9P219-1 1-2028)” the binding (GST-Gαi3 (rat) [2]) was “no binding”.
